{
  "source": "paper PMC12040169",
  "about": "(PLOS Biology, 2025)",
  "note": "This is one part of the list.",
  "data": [
    {"tested_on": "T1, C. trachomatis L2/434/Bu expressing GFP (CTL2-GFP)", "T1 construct": "L2/434/Bu GFP intracellular growth in HeLa cells", "set-up": "species or system HeLa; C. trachomatis total inclusion area by high-content imaging, normalised to DMSO", "conditions": "total inclusion area; 28.5 h, 10 µM; inhibitor", "how_it_was_run": "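High-content images of fixed, Hoechst-stained infected cultures supply inclusion area and count (growth) plus nuclei number (viability), complementing bulk GFP/resorufin fluorescence. MIC determination is unchanged from the primary assay.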", "values": [
      {"smiles": "CCn1c(C)nc2cc(NC(=O)Cn3cccc(C(=O)NC4CCCCC4)c3=O)ccc21", "note": "[CBK286042]", "% of control remaining": 101.229},
      {"smiles": "CCN1CCc2cc(-c3cncn3CC(=O)NC(C)(C)C)ccc21", "note": "[CBK281698]", "% of control remaining": 102.654},
      {"smiles": "Cc1cc(Cn2nnc(-c3ccc(Br)cc3)n2)cc(C)c1O", "note": "[CBK291129]", "% of control remaining": 110.69},
      {"smiles": "CC1CCc2onc(C(=O)Nc3ccncc3)c2C1", "note": "(centres unmarked) [CBK288080]", "% of control remaining": 71.9374},
      {"smiles": "O=C(c1ccncc1)N1CCc2cc(S(=O)(=O)N3CCOCC3)ccc21", "note": "[CBK287800]", "% of control remaining": 103.192},
      {"smiles": "CSCCCNC(=O)N1CCN(C2CCN(C)CC2)CC1", "note": "[CBK155882]", "% of control remaining": 45.8974},
      {"smiles": "COc1ccc(CN(C(=O)CCc2c(C)[nH]c(=O)c(C#N)c2C)C2CC2)cc1", "note": "[CBK295667]", "% of control remaining": 103.376},
      {"smiles": "CCCS(=O)(=O)NC1CC(C)(C)Cc2c1cnn2-c1ccc(C)cc1", "note": "(centres unmarked) [CBK307531]", "% of control remaining": 63.0782},
      {"smiles": "N#Cc1cnn2c(C(F)(F)F)cc(C(F)(F)F)nc12", "note": "[CBK014064]", "% of control remaining": 84.9659},
      {"smiles": "CSCCN1CCN(c2nccnc2OCc2cccnc2)CC1", "note": "[CBK083146]", "% of control remaining": 102.276},
      {"smiles": "CN(C(=O)CCc1nc2sc3c(c2c(=O)[nH]1)CCCC3)C1CCCCC1", "note": "[CBK306075]", "% of control remaining": 44.0764},
      {"smiles": "CN(C)C(=O)c1cccc(-c2cnc3[nH]c(=O)n(Cc4ccc(Cl)cc4)c3n2)c1", "note": "[CBK064553]", "% of control remaining": 137.669},
      {"smiles": "C=CCN1C(=O)/C(=C2/Sc3ccc(OC)cc3N2C)S/C1=N\\c1cc(C#N)ccc1NCC", "note": "[CBK262431]", "% of control remaining": 101.855},
      {"smiles": "CS(=O)(=O)Nc1ncc(Br)cc1C(=O)Nc1ccc(C(F)(F)F)cc1", "note": "[CBK076485]", "% of control remaining": 100.359},
      {"smiles": "COc1ncc(-c2cccc(N(C)CCN(C)C)n2)c(OC)n1", "note": "[CBK037599]", "% of control remaining": 77.8603},
      {"smiles": "CCC1CCCCN1C(=O)CCc1c(C)nc(-c2ccccc2)[nH]c1=O", "note": "(centres unmarked) [CBK305608]", "% of control remaining": 57.6659},
      {"smiles": "O=C(Nc1cc2ccccc2c(Br)n1)Nc1ccc(F)cc1C(F)(F)F", "note": "[CBK063278]", "% of control remaining": 79.239},
      {"smiles": "CCc1nccn1CCC(=O)Nc1ccc2c(c1)CCN2C(C)=O", "note": "[CBK281446]", "% of control remaining": 101.21},
      {"smiles": "CCOC(=O)C1=C(C)NC(=S)NC1c1ccc(O)c(OCC)c1[N+](=O)[O-]", "note": "(centres unmarked) [CBK265624]", "% of control remaining": 109.304},
      {"smiles": "COc1ccc(CN2C(=O)CO[C@H]3CN(c4nccc(C)n4)C[C@H]32)cc1", "note": "[CBK289056]", "% of control remaining": 94.4277},
      {"smiles": "Cc1ccc2nc(NCc3ccco3)c(/C=N/Cc3ccco3)c(=O)n2c1", "note": "[CBK220353]", "% of control remaining": 94.1212},
      {"smiles": "c1cnc(Oc2ccc(CN3CCCC(c4cn[nH]c4)C3)cc2)cn1", "note": "(centres unmarked) [CBK306416]", "% of control remaining": 29.8997},
      {"smiles": "CC(C)N(CC(=O)N(c1ccccc1)c1ccccc1)C(C)C", "note": "[CBK013303C]", "% of control remaining": 62.6992},
      {"smiles": "Nc1ncc(-c2cccc(O)c2)nc1NCc1ccco1", "note": "[CBK063675]", "% of control remaining": 99.0034},
      {"smiles": "O=C(Nc1cccnc1)c1cc(-c2ccc(Cl)cc2)on1", "note": "[CBK116555]", "% of control remaining": 94.8648},
      {"smiles": "NC(=O)c1c(NC(=O)c2ccc(COc3ccc4ccccc4c3)o2)sc2c1CCCC2", "note": "[CBK265871]", "% of control remaining": 101.474},
      {"smiles": "COCC(C)NC(=O)c1cc2c(C)cc(C)cc2[nH]1", "note": "(centres unmarked) [CBK057591]", "% of control remaining": 105.974},
      {"smiles": "CC1CCCN(Cc2c(C3CCNCC3)[nH]c3ncccc23)C1C", "note": "(centres unmarked) [CBK285084]", "% of control remaining": 94.761},
      {"smiles": "Cc1nc(CNCc2c(C)nn(C)c2N2CCOCC2)cs1", "note": "[CBK305753]", "% of control remaining": 98.8549},
      {"smiles": "CN1CCN(CCCNC(=O)c2ccc(-c3ccc(C(=O)N(C)C)cc3)nc2)CC1", "note": "[CBK158343]", "% of control remaining": 102.875},
      {"smiles": "CCCc1[nH]n(CC(=O)OCC)c(=O)c1Cc1c(Cl)cccc1Cl", "note": "[CBK104764]", "% of control remaining": 90.7566},
      {"smiles": "Clc1ccc(OCc2nnn[nH]2)c(C2CCCCC2)c1", "note": "[CBK270035]", "% of control remaining": 100.753},
      {"smiles": "O=C(COc1ccc2ccccc2c1)Nc1ccc(S(=O)(=O)N2CCc3ccccc32)cc1", "note": "[CBK263802]", "% of control remaining": 105.191},
      {"smiles": "O=C(Nc1cccc2cc[nH]c12)c1cc(F)cc(Cl)c1", "note": "[CBK160075]", "% of control remaining": 82.4075},
      {"smiles": "COC(=O)c1csc(-c2ccc(Cl)cc2Cl)n1", "note": "[CBK067776]", "% of control remaining": 91.9771},
      {"smiles": "CC(C)NC(=O)C1CN(Cc2ccccc2)CC12CCc1ccccc1C2NC(=O)CN", "note": "(centres unmarked) [CBK283093]", "% of control remaining": 117.309},
      {"smiles": "O=C(C1CCC1)N1CCCC1c1nnc(-c2ccsc2)o1", "note": "(centres unmarked) [CBK283365]", "% of control remaining": 120.935},
      {"smiles": "O=C(CC1SC(=O)NC1=O)Nc1ccccc1O", "note": "(centres unmarked) [CBK057932]", "% of control remaining": 109.755},
      {"smiles": "Cc1nc2c(c(=O)[nH]1)CN(Cc1cccc(Oc3ccccc3)c1)CC2", "note": "[CBK283951]", "% of control remaining": 84.3954},
      {"smiles": "CCNS(=O)(=O)c1ccc(NC(=O)c2nc3nc(C)cc(C(F)F)n3n2)cc1", "note": "[CBK266146]", "% of control remaining": 130.082},
      {"smiles": "COc1ccc(F)cc1-c1ccc(S(=O)(=O)Nc2nc(CC(=O)N3CCOCC3)cs2)cc1", "note": "[CBK200031]", "% of control remaining": 98.1894},
      {"smiles": "O=C(CSc1nc2ccccc2[nH]1)Nc1cccc(NC(=O)C23CC4CC(CC(C4)C2)C3)c1", "note": "[CBK265702]", "% of control remaining": 94.1492},
      {"smiles": "Cc1nc2ccc(Cl)cn2c1CN1CCN(C2CCCC2)C(=O)C1", "note": "[CBK281452]", "% of control remaining": 96.0224},
      {"smiles": "Cc1cccn2c(=O)cc(CN3CCc4nn(C)c(=O)cc4C3)nc12", "note": "[CBK305514]", "% of control remaining": 14.7517},
      {"smiles": "CN1Cc2nc[nH]c2C[C@H]1C(=O)NCc1ccco1", "note": "[CBK288979]", "% of control remaining": 97.2525},
      {"smiles": "O=S(=O)(Cc1cccc(C(F)(F)F)c1)c1csc2ccnc(N3CCNCC3)c12", "note": "[CBK039166C]", "% of control remaining": 95.8962},
      {"smiles": "COc1ccc([C@H](NC(=O)C2CCN(C(=O)OCc3ccccc3)CC2)c2ccccc2C)cn1", "note": "[CBK084639]", "% of control remaining": 96.4687},
      {"smiles": "O=C1c2ccc(Oc3ccc(Oc4ccc5c(c4)C(=O)N(c4cccnc4)C5=O)cc3)cc2C(=O)N1c1cccnc1", "note": "[CBK262195]", "% of control remaining": 96.9992},
      {"smiles": "C[C@@H](Nc1nc(-c2cccc(-c3ccccc3)c2)cnc1N)c1ccccc1", "note": "[CBK063704]", "% of control remaining": 136.263},
      {"smiles": "CC(C(=O)O)N(c1ccc(Cl)cc1)S(C)(=O)=O", "note": "(centres unmarked) [CBK267945]", "% of control remaining": 94.1041}
    ]}
  ]
}
